Results as given in the supplement of paper PMC12217912.
This is one part of the list. Sequences were assembled here from the parent chain. Inactive controls read about 0.05.

B1: TEV protease; numbered along this chain (parent)
chain: MGESLFKGPRDYNPISSSICHLTNESDGHTTSLYGIGFGPFIITNKHLFRRNNGTLVVQSLHGVFKVKDTTTLQQHLVDGRDMIIIRMPKDFPPFPQKLKFREPQREERICLVTTNFQTKSMSSMVSDTSCTFPSGDGIFWKHWIQTKDGQCGSPLVSTRDGFIVGIHSASNFTNTNNYFTSVPKNFMELLTNQEAQQWVSGWRLNADSVLWGGHKVFMVKPEEPFQPVKEATQL

Variants of: B1
Assay: raw area under fraction-flipped curve 0-4 h after induction (AUC4h, not background-subtracted), DNA-recorder readout of cleavage of the substrate (dimensionless); higher = more cleavage of the substrate by the protease variant
Details: temperature: 34 °C; time window: 0-4 h after rhamnose induction
Protocol: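 In vivo DNA recorder in E. coli TOP10(DE3) ΔrhaA at 34 °C. Each TEVp single-site mutant (parent TEVp 0) is paired with a single-site variant of the 7-mer TEVs (canonical ENLYFQ|S). The substrate sits between flexible linkers in a Bxb1-sfGFP-TEVs-SsrA fusion, so cleavage stabilises Bxb1 and speeds flipping of a recombination array, read by NGS. The value is the raw area under the fraction-flipped curve over 0-4 h after rhamnose induction (AUC4h), with ≥20 reads per time point. It is not background-subtracted; inactive controls average about 0.047.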
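Note: Bxb1 expression induced with 0.2% (w/v) L-rhamnose at OD600 near 0.5, cultures sampled hourly, flipped fraction per protease–substrate barcode pair counted by paired-end Illumina sequencing.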

Row | Variant | area with substrate CNLYFQS | area with substrate DNLYFQS | area with substrate FNLYFQS | area with substrate GNLYFQS | area with substrate HNLYFQS | area with substrate INLYFQS | area with substrate KNLYFQS | area with substrate LNLYFQS | area with substrate NNLYFQS | area with substrate PNLYFQS | area with substrate QNLYFQS | area with substrate TNLYFQS | area with substrate WNLYFQS | area with substrate MNLYFQS | area with substrate SNLYFQS | area with substrate YNLYFQS | area with substrate RNLYFQS | area with substrate VNLYFQS
1 | I43W | 0.0521 | 0.048 | 0.0624 | 0.0473 | 0.0521 | 0.0422 | 0.0534 | 0.0613 | 0.0492 | 0.0371 | 0.0535 | 0.0401 | 0.0513 | – | – | – | – | –
2 | I43G | 0.0497 | 0.0448 | 0.035 | – | 0.047 | – | – | 0.0522 | 0.0435 | 0.0494 | – | 0.0411 | 0.0386 | 0.0619 | 0.0557 | 0.0471 | – | –
3 | I43F | 0.0509 | 0.0651 | – | 0.0676 | 0.063 | 0.0552 | 0.0552 | 0.0531 | 0.0443 | 0.0602 | 0.0609 | 0.0624 | 0.0592 | 0.0492 | 0.0502 | 0.0377 | – | –
4 | H62W | 0.0665 | 0.0623 | – | 0.0798 | 0.0568 | 0.0942 | – | 0.0678 | 0.0976 | 0.0794 | – | 0.0451 | 0.0642 | 0.0614 | – | 0.0543 | 0.0259 | 0.0657
5 | H62R | 0.0568 | 0.0775 | – | 0.0769 | 0.0648 | 0.0635 | – | – | 0.0728 | – | – | 0.0848 | – | 0.0426 | – | 0.0539 | – | –
6 | H62S | 0.0729 | 0.0787 | 0.0571 | 0.0669 | 0.0692 | – | – | 0.0533 | – | 0.0629 | 0.0736 | 0.0732 | – | 0.0615 | – | 0.062 | 0.0579 | –
7 | L56E | 0.034 | 0.0456 | – | 0.0571 | – | 0.0474 | – | 0.036 | – | – | – | 0.0529 | 0.0423 | 0.0501 | – | – | – | –
8 | N45F | 0.0291 | 0.0737 | 0.0674 | 0.0638 | 0.0666 | 0.0577 | 0.0671 | 0.0647 | 0.0567 | 0.0653 | – | – | 0.059 | 0.0486 | 0.0631 | 0.0575 | – | –
9 | N45R | 0.0608 | 0.0575 | 0.0603 | – | 0.0507 | 0.0545 | 0.0464 | – | 0.0559 | 0.0536 | – | 0.0517 | 0.0734 | 0.0637 | 0.0655 | – | – | 0.0607
10 | N45M | 0.0483 | 0.0684 | 0.0696 | – | 0.0664 | – | 0.0535 | – | 0.0645 | 0.0679 | – | 0.0689 | 0.0614 | – | 0.0431 | 0.0641 | 0.0554 | –
11 | N45C | 0.0858 | 0.0694 | 0.0516 | – | 0.0797 | 0.074 | – | 0.0713 | – | 0.0707 | – | 0.0739 | 0.0614 | 0.0562 | – | 0.0625 | – | –
12 | R51K | 0.072 | 0.0852 | 0.0404 | – | – | – | – | – | – | – | – | 0.0551 | 0.0607 | 0.0505 | 0.0538 | 0.0644 | – | –
13 | R51F | 0.0679 | 0.0899 | – | 0.069 | 0.0706 | 0.0678 | – | – | – | 0.0753 | 0.0519 | – | 0.0681 | – | 0.0689 | 0.0653 | – | –
14 | L73W | 0.0494 | 0.0494 | 0.0475 | 0.0582 | 0.0548 | – | 0.0697 | 0.0492 | 0.0673 | – | – | – | 0.0497 | 0.0679 | – | – | – | 0.0873
15 | L73S | 0.05 | 0.0624 | 0.0583 | – | – | – | 0.0725 | – | – | 0.0522 | – | 0.0588 | 0.057 | 0.0547 | – | 0.0493 | 0.0477 | 0.0657
16 | L73T | 0.0594 | 0.0387 | 0.0452 | 0.0454 | 0.0496 | 0.0495 | – | 0.0626 | 0.0586 | 0.0579 | – | 0.0567 | 0.0565 | 0.0511 | 0.0527 | 0.0363 | – | 0.055
17 | F41T | 0.0889 | 0.0691 | – | 0.0588 | 0.0593 | – | 0.069 | 0.0722 | 0.0792 | 0.0542 | 0.0585 | – | – | 0.0502 | – | 0.0757 | – | –
18 | N52D | 0.0557 | 0.0624 | – | – | 0.0626 | 0.0571 | – | 0.0708 | 0.0541 | 0.0595 | – | 0.055 | 0.0564 | – | 0.0666 | 0.0792 | – | 0.0717
19 | N52K | 0.0749 | 0.0377 | 0.05 | – | 0.0617 | 0.062 | 0.0748 | 0.0659 | 0.0893 | 0.0613 | – | 0.0564 | 0.054 | – | – | 0.0343 | – | –
20 | L61E | 0.0759 | 0.0441 | – | – | 0.0693 | 0.0576 | 0.0733 | 0.0553 | – | 0.0742 | – | 0.0632 | – | 0.0477 | 0.0816 | 0.0612 | – | –
21 | Q59M | 0.0584 | 0.0667 | 0.0622 | 0.0558 | 0.0641 | – | 0.0646 | 0.0629 | 0.0512 | – | 0.0542 | 0.061 | 0.0558 | – | 0.0721 | 0.0795 | 0.0455 | –
22 | Q59F | 0.0714 | 0.0684 | 0.051 | – | 0.069 | 0.0515 | – | 0.0408 | 0.0682 | 0.0617 | – | 0.0585 | 0.0545 | 0.0667 | 0.0774 | 0.0575 | – | –
23 | F65M | 0.0577 | 0.0804 | 0.067 | – | 0.0596 | – | 0.067 | 0.0746 | 0.0673 | – | 0.0654 | 0.0669 | 0.0642 | 0.0636 | 0.064 | 0.0646 | – | 0.075
24 | V67C | 0.0674 | 0.102 | 0.0411 | 0.0566 | 0.0622 | 0.0671 | 0.0699 | 0.0643 | – | 0.0725 | 0.0622 | 0.0759 | 0.0596 | 0.0642 | 0.0548 | – | – | –
25 | T44H | 0.0374 | 0.0517 | 0.0377 | 0.0465 | 0.0549 | – | 0.0632 | 0.0199 | – | 0.0478 | – | 0.0443 | 0.0454 | 0.0488 | 0.0508 | 0.0531 | – | 0.0505
26 | T44G | 0.0596 | 0.0516 | 0.0611 | 0.0509 | – | 0.0322 | 0.0903 | – | 0.0337 | 0.0569 | – | 0.0499 | 0.052 | – | 0.0582 | – | – | –
27 | T44E | 0.0462 | 0.0398 | 0.0477 | – | 0.0461 | – | 0.0463 | 0.0433 | – | 0.0228 | 0.0433 | 0.0617 | – | – | – | 0.0396 | 0.0347 | 0.0459
28 | T71P | 0.0685 | 0.0586 | 0.0641 | – | – | 0.0669 | – | – | – | 0.0696 | 0.0691 | 0.0564 | – | – | 0.0568 | 0.0502 | – | –
29 | L77W | 0.0642 | 0.0639 | – | 0.0596 | – | 0.0564 | 0.0692 | 0.0535 | – | – | – | 0.0636 | 0.0529 | – | 0.0587 | – | – | –
